Residue numbers refer to the chain shown, from its start. Some of the results follow.
T1: RBFOX1 RRM (Homo sapiens, UniProt Q9NWB1 109-208)
T1 sequence: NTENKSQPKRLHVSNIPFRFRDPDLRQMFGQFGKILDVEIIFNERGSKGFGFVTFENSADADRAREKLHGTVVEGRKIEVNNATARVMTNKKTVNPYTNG

B1: CGCCCGA (DNA:RNA)
RNA: GGGAGACCGGAAUUCAGAUUGUCCCGCCCGAUUAAAUCCCGUCGUAGCCACCA
DNA 1: CAATCTGAATTCCGGTCTCCC
DNA 2: TGGTGGCTACGACGGGATT
B2: GAAUCUU (DNA:RNA)
RNA: B1 RNA with C25G, G26A, C27A, C28U, G30U, A31U
DNA 1: CAATCTGAATTCCGGTCTCCC
DNA 2: TGGTGGCTACGACGGGATT
B3: ACCCAUC (DNA:RNA)
RNA: B1 RNA with C25A, G26C, C29A, G30U, A31C
DNA 1: CAATCTGAATTCCGGTCTCCC
DNA 2: TGGTGGCTACGACGGGATT
B4: UCAGAUC (DNA:RNA)
RNA: GGGAGACCGGAAUUCAGAUUGUCCUCAGAUCUUAAAUCCCGUCGUAGCCACCA
DNA 1: CAATCTGAATTCCGGTCTCCC
DNA 2: TGGTGGCTACGACGGGATT
B5: GGGGGAG (DNA:RNA)
RNA: B1 RNA with C25G, C27G, C28G, C29G, G30A, A31G
DNA 1: CAATCTGAATTCCGGTCTCCC
DNA 2: TGGTGGCTACGACGGGATT
B6: AAUUAAU (DNA:RNA)
RNA: B4 RNA with U25A, C26A, A27U, G28U, U30A, C31U
DNA 1: CAATCTGAATTCCGGTCTCCC
DNA 2: TGGTGGCTACGACGGGATT
B7: GUUCUUC (DNA:RNA)
RNA: B4 RNA with U25G, C26U, A27U, G28C, A29U
DNA 1: CAATCTGAATTCCGGTCTCCC
DNA 2: TGGTGGCTACGACGGGATT
B8: ACGGUUU (DNA:RNA)
RNA: B4 RNA with U25A, A27G, A29U, C31U
DNA 1: CAATCTGAATTCCGGTCTCCC
DNA 2: TGGTGGCTACGACGGGATT
B9: AAUAUAA (DNA:RNA)
RNA: B1 RNA with C25A, G26A, C27U, C28A, C29U, G30A
DNA 1: CAATCTGAATTCCGGTCTCCC
DNA 2: TGGTGGCTACGACGGGATT
B10: UUCCGUC (DNA:RNA)
RNA: B4 RNA with C26U, A27C, G28C, A29G
DNA 1: CAATCTGAATTCCGGTCTCCC
DNA 2: TGGTGGCTACGACGGGATT
B11: AGCAAAA (DNA:RNA)
RNA: B1 RNA with C25A, C28A, C29A, G30A
DNA 1: CAATCTGAATTCCGGTCTCCC
DNA 2: TGGTGGCTACGACGGGATT
B12: CACCAUC (DNA:RNA)
RNA: B1 RNA with G26A, C29A, G30U, A31C
DNA 1: CAATCTGAATTCCGGTCTCCC
DNA 2: TGGTGGCTACGACGGGATT
B13: UAGUCGC (DNA:RNA)
RNA: B1 RNA with C25U, G26A, C27G, C28U, A31C
DNA 1: CAATCTGAATTCCGGTCTCCC
DNA 2: TGGTGGCTACGACGGGATT
B14: UUAUGUA (DNA:RNA)
RNA: B4 RNA with C26U, G28U, A29G, C31A
DNA 1: CAATCTGAATTCCGGTCTCCC
DNA 2: TGGTGGCTACGACGGGATT
B15: CCUAACU (DNA:RNA)
RNA: B4 RNA with U25C, A27U, G28A, U30C, C31U
DNA 1: CAATCTGAATTCCGGTCTCCC
DNA 2: TGGTGGCTACGACGGGATT
B16: ACCGCUA (DNA:RNA)
RNA: B1 RNA with C25A, G26C, C28G, G30U
DNA 1: CAATCTGAATTCCGGTCTCCC
DNA 2: TGGTGGCTACGACGGGATT
B17: ACGAUUG (DNA:RNA)
RNA: B4 RNA with U25A, A27G, G28A, A29U, C31G
DNA 1: CAATCTGAATTCCGGTCTCCC
DNA 2: TGGTGGCTACGACGGGATT
B18: CGAUUAG (DNA:RNA)
RNA: B1 RNA with C27A, C28U, C29U, G30A, A31G
DNA 1: CAATCTGAATTCCGGTCTCCC
DNA 2: TGGTGGCTACGACGGGATT
B19: GGUGAUG (DNA:RNA)
RNA: B4 RNA with U25G, C26G, A27U, C31G
DNA 1: CAATCTGAATTCCGGTCTCCC
DNA 2: TGGTGGCTACGACGGGATT
B20: GUGAAAU (DNA:RNA)
RNA: B4 RNA with U25G, C26U, A27G, G28A, U30A, C31U
DNA 1: CAATCTGAATTCCGGTCTCCC
DNA 2: TGGTGGCTACGACGGGATT
B21: AAGCCCU (DNA:RNA)
RNA: B1 RNA with C25A, G26A, C27G, G30C, A31U
DNA 1: CAATCTGAATTCCGGTCTCCC
DNA 2: TGGTGGCTACGACGGGATT
B22: UCGGGAG (DNA:RNA)
RNA: B4 RNA with A27G, A29G, U30A, C31G
DNA 1: CAATCTGAATTCCGGTCTCCC
DNA 2: TGGTGGCTACGACGGGATT
B23: GUGUAAA (DNA:RNA)
RNA: B1 RNA with C25G, G26U, C27G, C28U, C29A, G30A
DNA 1: CAATCTGAATTCCGGTCTCCC
DNA 2: TGGTGGCTACGACGGGATT
B24: UAAGUCA (DNA:RNA)
RNA: B4 RNA with C26A, A29U, U30C, C31A
DNA 1: CAATCTGAATTCCGGTCTCCC
DNA 2: TGGTGGCTACGACGGGATT
B25: GAUUUAA (DNA:RNA)
RNA: B1 RNA with C25G, G26A, C27U, C28U, C29U, G30A
DNA 1: CAATCTGAATTCCGGTCTCCC
DNA 2: TGGTGGCTACGACGGGATT
B26: GUACAUG (DNA:RNA)
RNA: B4 RNA with U25G, C26U, G28C, C31G
DNA 1: CAATCTGAATTCCGGTCTCCC
DNA 2: TGGTGGCTACGACGGGATT
B27: CCCUCUU (DNA:RNA)
RNA: B1 RNA with G26C, C28U, G30U, A31U
DNA 1: CAATCTGAATTCCGGTCTCCC
DNA 2: TGGTGGCTACGACGGGATT
B28: AAUGAUC (DNA:RNA)
RNA: B4 RNA with U25A, C26A, A27U
DNA 1: CAATCTGAATTCCGGTCTCCC
DNA 2: TGGTGGCTACGACGGGATT
B29: UUUACCC (DNA:RNA)
RNA: B4 RNA with C26U, A27U, G28A, A29C, U30C
DNA 1: CAATCTGAATTCCGGTCTCCC
DNA 2: TGGTGGCTACGACGGGATT
B30: CUUGCCA (DNA:RNA)
RNA: B1 RNA with G26U, C27U, C28G, G30C
DNA 1: CAATCTGAATTCCGGTCTCCC
DNA 2: TGGTGGCTACGACGGGATT
B31: GAACGGU (DNA:RNA)
RNA: B1 RNA with C25G, G26A, C27A, C29G, A31U
DNA 1: CAATCTGAATTCCGGTCTCCC
DNA 2: TGGTGGCTACGACGGGATT

The binders below were run against T1, RBFOX1 RRM (assay: EMSA; HiTS-Eq, 1 nM pool, 10 min; buffer printed only for the single-RNA assays: 10 mM Tris pH 7.5, 150 mM NaCl, 3.4 mM EDTA, 0.001% NP-40, 30 C). Conditions: tags: His6 N-terminal (pET28a); label: 5' 32P.
In short: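 Purified RbFox RRM, wild type or mutant, was incubated for 10 min in 50 µL with 1 nM of a 5′-radiolabelled RNA pool carrying 7 randomized nucleotides, whose flanks were annealed to DNA oligonucleotides, over a series of increasing protein concentrations. Unbound RNA was resolved on 8% native PAGE, cut out, reverse-transcribed, barcoded by PCR and sequenced on an Illumina HiSeq 2500. Relative association constants were derived from changes in read counts for each RNA species versus the control reaction and normalised to the cognate motif.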

| Binder | binding signal |
| --- | --- |
| B1 | 0.012 KA relative to UGCAUGU |
| B2 | 0.0115 KA relative to UGCAUGU |
| B3 | 0.000958 KA relative to UGCAUGU |
| B4 | 0.00703 KA relative to UGCAUGU |
| B5 | 0.021 KA relative to UGCAUGU |
| B6 | 0.00321 KA relative to UGCAUGU |
| B7 | 0.0209 KA relative to UGCAUGU |
| B8 | 0.0116 KA relative to UGCAUGU |
| B9 | 0.00278 KA relative to UGCAUGU |
| B10 | 0.0117 KA relative to UGCAUGU |
| B11 | 0.00164 KA relative to UGCAUGU |
| B12 | 0.00178 KA relative to UGCAUGU |
| B13 | 0.0124 KA relative to UGCAUGU |
| B14 | 0.0155 KA relative to UGCAUGU |
| B15 | 0.00233 KA relative to UGCAUGU |
| B16 | 0.00499 KA relative to UGCAUGU |

| Binder | binding signal |
| --- | --- |
| B17 | 0.0124 KA relative to UGCAUGU |
| B18 | 0.00959 KA relative to UGCAUGU |
| B19 | 0.0163 KA relative to UGCAUGU |
| B20 | 0.0107 KA relative to UGCAUGU |
| B21 | 0.00417 KA relative to UGCAUGU |
| B22 | 0.00935 KA relative to UGCAUGU |
| B23 | 0.00728 KA relative to UGCAUGU |
| B24 | 0.00456 KA relative to UGCAUGU |
| B25 | 0.00575 KA relative to UGCAUGU |
| B26 | 0.00882 KA relative to UGCAUGU |
| B27 | 0.00358 KA relative to UGCAUGU |
| B28 | 0.00553 KA relative to UGCAUGU |
| B29 | 0.00298 KA relative to UGCAUGU |
| B30 | 0.0089 KA relative to UGCAUGU |
| B31 | 0.0147 KA relative to UGCAUGU |

— article PMC9911399, “Two distinct binding modes provide the RNA-binding protein RbFox with extraordinary sequence specificity”
